In PubChem BioAssay AID1030 (National Center for Advancing Translational Sciences (NCATS), 2008):
In all, about 220,000 compounds went through this assay and about 16,000 (7.3%) were called active. This list was built around the results that the source calls inconclusive (neither active nor inactive); the mix of calls is not that of the screen. Calls follow the shape of the dose curve; as a rule, active = well fitted inhibition curve with a large enough effect (not every such curve was filed as active); inconclusive = small, poorly fitted or top-dose-only effect, or another doubt; inactive = no such curve, though single readings can be large or run the other way. Potencies of inconclusive entries are left out as doubtful fits.

target: Aldehyde dehydrogenase 1A1 (Homo sapiens) (UniProt P00352); assay: qHTS Assay for Inhibitors of Aldehyde Dehydrogenase 1 (ALDH1A1); settings: Purified ALDH1A1, NADH fluorescence, propionaldehyde substrate; series mostly up to 75.3 µM;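 as to activity, negative = inhibition: plate controls were no enzyme wells and a reference inhibitor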
Potency is read from the fitted curve at half-maximal effect; tags tell the direction and shape of the fitted curve.

UniProt P00352, sequence (P00352 whole entry, looked up): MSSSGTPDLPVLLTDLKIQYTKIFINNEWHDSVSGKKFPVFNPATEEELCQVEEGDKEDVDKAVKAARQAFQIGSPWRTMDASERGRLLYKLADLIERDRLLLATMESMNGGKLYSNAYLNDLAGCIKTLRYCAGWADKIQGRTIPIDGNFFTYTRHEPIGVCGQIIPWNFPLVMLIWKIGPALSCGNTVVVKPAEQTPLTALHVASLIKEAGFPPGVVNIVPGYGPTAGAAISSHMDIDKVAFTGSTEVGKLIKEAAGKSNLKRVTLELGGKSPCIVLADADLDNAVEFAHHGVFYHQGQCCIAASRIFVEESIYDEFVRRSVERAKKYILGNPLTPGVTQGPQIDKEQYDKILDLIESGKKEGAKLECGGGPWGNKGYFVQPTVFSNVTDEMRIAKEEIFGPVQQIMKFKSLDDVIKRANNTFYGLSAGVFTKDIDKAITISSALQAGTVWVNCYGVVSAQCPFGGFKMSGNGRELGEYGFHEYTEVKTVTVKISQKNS

Structure (SMILES)	Potency	activity, negative = inhibition
C=CCSc1nc2c(c(=O)[nH]c(=O)n2C)n1C/C=C(/C)Cl	inconclusive [inhibitor, partial curve]	–
FC(F)(F)c1cc(-c2ccccc2)nc(NCc2cccnc2)n1	inconclusive [inhibitor, single point]	–
CN(C)S(=O)(=O)c1ccc2nc(NC(=O)c3cccs3)sc2c1	inconclusive [inhibitor, single point]	–
COc1ccc(C2CC(=O)Oc3cc4c(cc32)OCO4)cc1 (stereo not given)	inconclusive [inhibitor, single point]	–
O=C(c1cccc(C(F)(F)F)c1)N1CCN(c2cc(=O)[nH]nc2-c2ccccc2)CC1	active: 2.99 µM	–
Nc1c(S(N)(=O)=O)cc(S(N)(=O)=O)cc1S(N)(=O)=O	–	inactive: 1.54% [at 13.5 µM]
O=C(c1cccc(F)c1)N1CCC2(CCCN(Cc3cc(C(F)(F)F)cc(C(F)(F)F)c3)C2)CC1	inactive	–
CCn1cc(C(=O)O)c(=O)c2cnc(N3CCN(C(=O)Nc4cccc5ccccc45)CC3)nc21	inconclusive [inhibitor, partial curve]	–
COc1cccc(Cn2c(=O)c(-c3cccc(Cl)c3)nc3cncnc32)c1	inactive	–
Cc1ccc(NCCC(=O)c2ccc(Cl)cc2)cc1C	active: 2.82 µM	–
O=S(=O)(c1ccc(Cl)cc1)N1CCN(C2CCCCCC2)CC1	inconclusive [inhibitor, single point]	–
Cc1cc(NC(=O)CN2CCC(O)(c3cccc(F)c3)CC2)no1	inconclusive [inhibitor, single point]	–
O=C(NCCc1ccccc1)C(=O)NCC1CCCO1 (stereo not given)	inactive	–
Cc1cccc(Cc2c(C)nc3nc(SCC(=O)NCc4ccco4)nn3c2C)c1	active: 25.1 µM	–
COc1ccc(N2C(=S)N=C(Nc3cccc(C)c3)C23CCCCC3)cc1	inactive	–
CCOC(=O)N1CCN(Cc2nc(N)nc(Nc3ccc(OC)cc3)n2)CC1	inconclusive [inhibitor, single point]	–
Cc1ccc(Cn2c(=S)[nH]c3ccc(N4CCOCC4)cc3c2=O)o1	inconclusive [inhibitor, partial curve]	–
O=C(O)c1ccc(NC2=C/C(=N/S(=O)(=O)c3ccccc3)c3ccccc3C2=O)cc1	inconclusive [inhibitor, single point]	–
CCc1ccc(/C=N\NC(=O)c2ccc(Br)o2)s1	inactive	–
COc1ccc(C(CNC(=O)c2ccc(S(=O)(=O)N(C)C)cc2)N(C)C)cc1 (stereo not given)	inconclusive [inhibitor, partial curve]	–
O=S(=O)(c1ccc(OCc2nc3ccccc3s2)c(Cl)c1)N1CCOCC1	inconclusive [inhibitor, partial curve]	–
Cc1ccc2cc(CN(Cc3ccco3)S(=O)(=O)c3c(C)ccc4nsnc34)c(=O)[nH]c2c1	inconclusive [inhibitor, partial curve]	–
Nc1nonc1-n1nnc(C(=O)c2ccccc2)c1-c1ccccc1	active: 2.82 µM	–

Structure (SMILES)	Potency	activity, negative = inhibition
O=C(N/N=C/c1sc(=O)n(-c2ccccc2)c1Cl)c1ccccc1	active: 15.8 µM	–
Cc1ccc(NC(=O)CN2C(=O)S/C(=C\c3ccc(-c4cccc(C(=O)O)c4C)o3)C2=O)cc1	inconclusive [inhibitor, partial curve, poor fit]	–
Cc1ccccc1CSCCNS(C)(=O)=O	inactive	–
COC(=O)c1ccc(C(/C=C/[C@@H](C)C(=O)NCc2ccc(OC)c(O)c2)NC(=O)OCc2ccccc2)cc1 (stereo not given in full)	inconclusive [inhibitor, partial curve]	–
Cn1c(=O)c(=O)n(C)c2cc(S(=O)(=O)NCCOc3ccccc3)ccc21	inconclusive [inhibitor, single point]	–
Clc1ccc(-n2nnnc2SCc2c(-c3ccccc3)nc3sccn23)cc1	inconclusive [inhibitor, single point]	–
COCCn1c(C)cc(C(=O)COc2cccnc2[N+](=O)[O-])c1C	active: 5.62 µM	–
COC(=O)c1ccc(CSc2nc(N3CCOCC3)c3c(c2C#N)CC(C)(C)OC3)o1	active: 1.26 µM	–
Cc1ccc(/C=C/c2nc3ccccc3[nH]2)o1	inconclusive [inhibitor, partial curve]	–
COc1cccc(CNC(=S)Nc2cc(C)ccc2C)c1	inconclusive [inhibitor, single point]	–
C=CCOc1c(CNn2cn[nH]c2=S)cccc1OC	inactive	–
O=c1c(Cl)c(N2CCOCC2)cnn1-c1nc2ccccc2[nH]1	inactive	–
O=C(CSc1ccc2nnc(-c3cccnc3)n2n1)c1ccccc1	inconclusive [inhibitor, single point]	–
Cc1ccc(C(=O)c2ccc(N3CCOCC3)c(F)c2)cc1	inconclusive [inhibitor, partial curve]	–
CCC(C)C1=CC(=Nc2c(C)n(C)n(-c3ccccc3)c2=O)C=C(C(C)CC)C1=O (stereo not given)	inconclusive [inhibitor, single point]	–
Cc1cc(C)n2nc(SCCOc3ccccc3)nc2n1	inactive	–
CC1CC(C)CN(C(=O)CSCC(=O)Nc2nc(-c3cccs3)cs2)C1 (stereo not given)	inconclusive [inhibitor, single point]	–
CCN(Cc1ccccc1)S(=O)(=O)c1ccc(C(=O)N2CCN(c3nc4ccccc4s3)CC2)cc1	inactive	–
COc1ccc(OC)c(NC(=O)CSc2nnc(C)n2Cc2ccccc2)c1	active: 17.8 µM	–
COCCNc1nc2c(S(=O)(=O)c3cc(C)ccc3C)nnn2c2ccccc12	inconclusive [inhibitor, partial curve, poor fit]	–
COC(=O)c1ccccc1NC(=S)NC(=O)c1ccccc1F	inactive	–
CCOc1ccc(NS(=O)(=O)c2ccc3[nH]cc(C(=O)NCC4CCCO4)c(=O)c3c2)cc1 (stereo not given)	inconclusive [inhibitor, partial curve]	–
